Test results as given in PMC12136788.
Some of the results follow.

T1: UNK ZnF1-3 (human, UniProt Q9C0B0 31-174)
T1 sequence: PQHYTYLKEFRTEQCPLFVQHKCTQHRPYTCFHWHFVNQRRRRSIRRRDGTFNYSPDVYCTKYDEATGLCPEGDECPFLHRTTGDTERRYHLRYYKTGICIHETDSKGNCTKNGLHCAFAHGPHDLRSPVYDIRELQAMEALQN

B1: chr9:15470827:15470828:-_ENSG00000164985_ENST00000397519|hu_mus|FALSE|FALSE (ssRNA)
RNA: GGGAGUUCUACAGUCCGACGAUCGUCAAGGGCACACCUGCCCCAGUUUUCAAGAACGUAAUAGCUACUCCAGUUUAAUACCUAGCUUCAAAACAAAAUGAUUUUCAUAUUCUCUAAGUGAGAUAAUGUACAGUCGCCGUCUUCCAACAGAGGAUUGAGCAUCA
B2: chr14:32562060:32562061:+_ENSG00000100852_ENST00000539826|hu_mus|FALSE|FALSE (ssRNA)
RNA: GGGAGUUCUACAGUCCGACGAUCCUUUAUUUGUGAUUCAUUAAAUUUACGAGGAUAUGUACCAGUAGGUACGUCUACAAAAGGACACUGCAAUUUGUUGGCCAACUGCUGACCCUGGUGCCUGAGAAUUGGUAGAUUUUUACUCAACAGAGGAUUGAGCAUCA
B3: 94682084_94682457_2662_CDS_ENSMUSG00000038902_ENSMUST00000107270|mouse|control|control (ssRNA)
RNA: GGGAGUUCUACAGUCCGACGAUCCAUCCAACUGAGCCCCCGUGGUAAGAUGUUGCUAGAUCUGUGGGAGGGGUUGAACACUAAAUGCUUGGCCAUCGCAUCUCCCACGGAGGUAGCAAAGGUACACGAAGUGCAGGCCAGCUUCAACAGAGGAUUGAGCAUCA
B4: chr8:104063288:104063289:+_ENSG00000155097_ENST00000518738|hu_hu|FALSE|FALSE (ssRNA)
RNA: GGGAGUUCUACAGUCCGACGAUCUAUAUAAGUAACCAAGUCCACUCCAUUAGCCAACAGAUUCUCUUGAACUUUGUCUUUGCUAUCUUCCAAUACAUCAGCCAUGUAUUGAGCUACUUUCUUAACCACUCCUUCUACAAAUGCCAACAGAGGAUUGAGCAUCA
B5: 87966449_87966569_3205_CDS_ENSG00000188994_ENST00000369577|human|control|control (ssRNA)
RNA: GGGAGUUCUACAGUCCGACGAUCAACAAAUGCAAUACUUUCUAAUGUCUUAAGAGGUAAAUUAUAAAGAUUGGAUGAUGUUUUAACAUUAUCUCCACAUUCAAAUUUGGAAGUUGGUAAAUUGUUUUGAAAUGCUGCCUGAUUCAACAGAGGAUUGAGCAUCA
B6: chr17:38556828:38556829:-_ENSG00000131747_ENST00000423485|hu_mus|motif|central (ssRNA)
RNA: GGGAGUUCUACAGUCCGACGAUCAGUCCACGUUCGGAUGGGAAGCUCUGAGAUUUCAAUGGUUGUAGAAUCCAGAAUAGCGGCUUCUCCAUUAAUCACAUACUGAUUUGAAGCCAGUUCUUCAAUAGUACCUUUGAAAUUCUUCAACAGAGGAUUGAGCAUCA
B7: 60976484_60980176_644_CDS_ENSMUSG00000042506_ENSMUST00000041683|mouse|control|control (ssRNA)
RNA: GGGAGUUCUACAGUCCGACGAUCCAGUCCACGCAGACCUAUGGUACAAUUGGAGGUGAUCUUCCGCCUCUUUGGGUUAUGCUUCAGCAGUUCCAGCUCCCGUUUAGUUGGUUCCCAAGUUGAAAACUUCUCUCCAACACCUUGCAACAGAGGAUUGAGCAUCA
B8: chr6:38652254:38652255:-_ENSG00000124767_ENST00000373365|hu_hu|hu_hu_hu_mus_False|78_88 (ssRNA)
RNA: GGGAGUUCUACAGUCCGACGAUCCGAGAACUUCAUAGCAGGGAAGUCACAUUUUUGGAUUAGCGUCAGUCCAAGAACCCUCGUAUAAAAAUCCAGGGACUUCUUAGGAUCCUUAAUUCUUAGCAUCGUUUGCUGCAGUAGAAACAACAGAGGAUUGAGCAUCA
B9: chr22:19452774:19452775:-_ENSG00000070010_ENST00000399523|hu_hu|hu_hu_hu_mus_False|78_98 (ssRNA)
RNA: GGGAGUUCUACAGUCCGACGAUCCUUCUCAUUGUAGUUGAUGGCAAUCACAUCUCCGGUGGUCAGACAGGCGAAGUUUCUCAAUGCAUUUUCUAAUACCGCUUUAGGGUUGGUAAUAUCCAGGAAGUCUGGGCUCUGAGGCUGCAACAGAGGAUUGAGCAUCA
B10: chr7:137662931:137662932:-_ENSMUSG00000030850_ENSMUST00000033139|mus_mus|FALSE|FALSE (ssRNA)
RNA: GGGAGUUCUACAGUCCGACGAUCAGCGACUGCCCAACUUGUUCUUGCAGUAGCCACACUGGAAGGAGGUCUGGCCCUCAAAAUACUCUACAAGGCUAGGUGAAGGCGCGCUCCAAGAAGCCAUGUCCGCGACCCCGCCGCCGCCAACAGAGGAUUGAGCAUCA
B11: 7411140_7411260_310_5pUTR_ENSMUSG00000040021_ENSMUST00000165952|mouse|control|control (ssRNA)
RNA: GGGAGUUCUACAGUCCGACGAUCGCAUCUAUAUGUGGCCCCUGCAAAGCACUUCUUAAGGAGCUAACUCAAAGACUCAGAGCUUCUUCUGAGCCAAGGUGAAAGGGGAAGUCCCAGGAAUGUUAAAAUCCUUUACAGUGGAAGCAACAGAGGAUUGAGCAUCA
B12: 165859584_165865433_606_CDS_ENSG00000143179_ENST00000367879|human|control|control (ssRNA)
RNA: GGGAGUUCUACAGUCCGACGAUCCUCCUUCCGGGAAUGGGAGACAAAGUCAUACACGGGGAUCUGGACUGUUUUCCCUUCAGUGAUUUCUUUGAGUGUUUUGAGAAUGAGUUCAUUGUCAAAGGCAUCCGGGUGGUCAAAGUUCAACAGAGGAUUGAGCAUCA
B13: chr12:16048344:16048345:+_ENSG00000023734_ENST00000419869|hu_hu|hu_hu_hu_mus_True|98_98 (ssRNA)
RNA: GGGAGUUCUACAGUCCGACGAUCAGAUCGUCCAUAAGUUAUAACCAAAAUCUCUCCUUCAGGAAUAUACUCCAUGCUGCUAACAGACAUAUUAAAAUUCAGAGAUUUCACUUCUGUCAUUGUGGCAUGAUCCCAGAGCCGAACCAACAGAGGAUUGAGCAUCA
B14: chr11:100882373:100882374:+_ENSMUSG00000019302_ENSMUST00000044721|mus_hu|motif|central (ssRNA)
RNA: GGGAGUUCUACAGUCCGACGAUCUUCCUGGUUUGUGUUGAUUUCCUUCAGUUCAUUUUCAAUCUUCUCAAAAUUGGCCUCGGAGUCAAUCAUGUCCCGGGGGAAGGGAACCUCUGGGUUUUCACCGGUGUCCAUAAUCGGAAUCAACAGAGGAUUGAGCAUCA

Target: T1, UNK ZnF1-3
Test: nsRBNS (natural sequence RNA bind-n-seq); RBNS binding buffer (assumed for nsRBNS): 25 mM Tris pH 7.5, 150 mM KCl, 3 mM MgCl2, 0.01% Triton X-100, 500 ug/ml BSA, 20 U/ml SUPERase-In, 4 C; UNK is unkempt and MSI1 is Musashi-1; names of the RNAs are library labels; protein concentration not given here; high values mean tight binding

In order of falling binding signal:
1. B13  1.32 enrichment R
2. B11  1.31 enrichment R
3. B8  1.3 enrichment R
4. B2  1.12 enrichment R
5. B9  1.04 enrichment R
6. B4  0.974 enrichment R
7. B10  0.96 enrichment R
8. B12  0.898 enrichment R
9. B6  0.838 enrichment R
10. B1  0.818 enrichment R
11. B3  0.777 enrichment R
12. B5  0.757 enrichment R
13. B14  0.619 enrichment R
14. B7  0.493 enrichment R
